Laboratory results: paper PMC5156837
No constants are given. Whether binding was seen depends on the method and setting. Some results given as binding are weak or reduced against the parent protein; the word gives no strength. For some of these results: Tags and fused reporters may be left off the sequences shown.

By UniProt entry, the sequences of proteins in these tests, tags left out.
UniProt Q7FRS8: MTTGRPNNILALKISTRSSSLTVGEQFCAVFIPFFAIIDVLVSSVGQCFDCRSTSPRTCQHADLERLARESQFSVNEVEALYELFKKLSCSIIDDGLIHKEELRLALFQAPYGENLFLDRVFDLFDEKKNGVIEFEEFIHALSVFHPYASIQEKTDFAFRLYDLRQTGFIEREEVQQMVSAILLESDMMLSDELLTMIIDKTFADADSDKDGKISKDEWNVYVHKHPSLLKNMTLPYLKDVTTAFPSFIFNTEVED
UniProt Q9LTB8: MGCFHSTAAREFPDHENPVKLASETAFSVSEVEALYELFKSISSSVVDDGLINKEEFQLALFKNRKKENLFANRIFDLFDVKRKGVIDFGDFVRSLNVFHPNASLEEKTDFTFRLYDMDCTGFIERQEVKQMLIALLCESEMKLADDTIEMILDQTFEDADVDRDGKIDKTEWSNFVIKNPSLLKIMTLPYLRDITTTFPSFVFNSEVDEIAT
UniProt Q9SUA6: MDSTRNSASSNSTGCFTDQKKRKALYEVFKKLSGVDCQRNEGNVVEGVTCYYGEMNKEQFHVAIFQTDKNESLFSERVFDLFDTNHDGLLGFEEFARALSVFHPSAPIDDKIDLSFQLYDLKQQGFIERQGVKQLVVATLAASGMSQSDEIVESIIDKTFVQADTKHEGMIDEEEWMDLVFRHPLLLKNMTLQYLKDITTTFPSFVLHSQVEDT
UniProt Q9C5P6: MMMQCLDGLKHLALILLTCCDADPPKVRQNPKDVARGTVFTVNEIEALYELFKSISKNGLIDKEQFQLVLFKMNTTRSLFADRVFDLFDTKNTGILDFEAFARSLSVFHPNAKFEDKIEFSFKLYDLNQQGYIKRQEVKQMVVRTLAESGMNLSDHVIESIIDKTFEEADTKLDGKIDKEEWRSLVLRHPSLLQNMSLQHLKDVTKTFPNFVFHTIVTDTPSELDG
UniProt O81223: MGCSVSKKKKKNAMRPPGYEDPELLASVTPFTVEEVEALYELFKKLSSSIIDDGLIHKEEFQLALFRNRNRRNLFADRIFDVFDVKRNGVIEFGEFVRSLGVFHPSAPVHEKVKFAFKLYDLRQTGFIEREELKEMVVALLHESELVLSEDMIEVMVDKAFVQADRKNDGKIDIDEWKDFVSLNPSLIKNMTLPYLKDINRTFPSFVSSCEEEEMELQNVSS
UniProt O81445: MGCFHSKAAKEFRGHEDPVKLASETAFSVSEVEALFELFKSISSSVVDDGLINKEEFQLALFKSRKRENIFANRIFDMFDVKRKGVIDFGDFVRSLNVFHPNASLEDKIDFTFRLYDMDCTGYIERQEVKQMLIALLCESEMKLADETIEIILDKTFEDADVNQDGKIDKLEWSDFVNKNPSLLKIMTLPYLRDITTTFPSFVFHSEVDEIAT

Tests used:
[1] = biological target: BD·CBL10 (calcineurin B-like protein 10 fused to the GAL4 DNA-binding domain) (Arabidopsis thaliana) (UniProt Q7FRS8); assay: two-hybrid; yeast two-hybrid system; data not shown
[2] = biological target: BD·CBL9 (calcineurin B-like protein 9 fused to the GAL4 DNA-binding domain) (Arabidopsis thaliana) (UniProt Q9LTB8); assay: two-hybrid; yeast strain Y190; BD (pGBT9.BS) and AD (pGAD.GH) fusions; growth on SC-HLW (HIS3 reporter), LacZ filter-lift assay; 30°C
[3] = biological target: BD·CBL3 (calcineurin B-like protein 3 fused to the GAL4 DNA-binding domain) (Arabidopsis thaliana) (UniProt Q8LEM7); assay: as above
[4] = biological target: BD·CBL7 (calcineurin B-like protein 7 fused to the GAL4 DNA-binding domain) (Arabidopsis thaliana) (UniProt Q9SUA6); assay: as above
[5] = biological target: T1, BD·CBL5 (calcineurin B-like protein 5 fused to the GAL4 DNA-binding domain) (Arabidopsis thaliana) (UniProt Q7FZF1); assay: as above
T1 sequence: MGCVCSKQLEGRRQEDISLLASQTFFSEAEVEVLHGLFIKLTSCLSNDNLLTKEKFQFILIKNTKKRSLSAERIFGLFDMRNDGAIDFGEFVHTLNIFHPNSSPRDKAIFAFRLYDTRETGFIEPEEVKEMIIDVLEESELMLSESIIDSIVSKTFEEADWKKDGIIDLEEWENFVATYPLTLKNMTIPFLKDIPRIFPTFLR

[6] = biological target: BD·CBL6 (calcineurin B-like protein 6 fused to the GAL4 DNA-binding domain) (Arabidopsis thaliana) (UniProt Q9C5P6); assay: as above
[7] = biological target: BD·CBL2 (calcineurin B-like protein 2 fused to the GAL4 DNA-binding domain) (Arabidopsis thaliana) (UniProt Q8LAS7); assay: as above
[8] = biological target: BD·CBL4 (calcineurin B-like protein 4 fused to the GAL4 DNA-binding domain) (Arabidopsis thaliana) (UniProt O81223); assay: as above
[9] = biological target: T2, BD·CBL8 (calcineurin B-like protein 8 fused to the GAL4 DNA-binding domain) (Arabidopsis thaliana) (UniProt Q9FUQ7); assay: as above
T2 sequence: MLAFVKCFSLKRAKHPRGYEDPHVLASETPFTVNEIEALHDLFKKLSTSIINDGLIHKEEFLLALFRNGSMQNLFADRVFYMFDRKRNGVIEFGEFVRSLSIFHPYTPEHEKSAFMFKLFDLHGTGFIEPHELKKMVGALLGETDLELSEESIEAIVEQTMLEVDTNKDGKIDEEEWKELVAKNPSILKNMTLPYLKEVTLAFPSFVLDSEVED

[10] = biological target: BD·CBL1 (calcineurin B-like protein 1 fused to the GAL4 DNA-binding domain) (Arabidopsis thaliana) (UniProt O81445); assay: as above
[11] = biological target: BD·CBL10 (calcineurin B-like protein 10 fused to the GAL4 DNA-binding domain) (Arabidopsis thaliana) (UniProt Q7FRS8); assay: as above

B1: TOC33 (TOC34-like protein, At1g02280) (protein, UniProt O23680 1-297)
chain: MGSLVREWVGFQQFPAATQEKLIEFFGKLKQKDMNSMTVLVLGKGGVGKSSTVNSLIGEQVVRVSPFQAEGLRPVMVSRTMGGFTINIIDTPGLVEAGYVNHQALELIKGFLVNRTIDVLLYVDRLDVYRVDELDKQVVIAITQTFGKEIWCKTLLVLTHAQFSPPDELSYETFSSKRSDSLLKTIRAGSKMRKQEFEDSAIAVVYAENSGRCSKNDKDEKALPNGEAWIPNLVKAITDVATNQRKAIHVDKKMVDGSYSDDKGKKLIPLIIGAQYLIVKMIQGAIRNDIKTSGKPL
- binding [1]: binds

B2: AD·TOC34 (full-length Translocon of the Outer membrane of the Chloroplasts 34 fused to the GAL4 activation domain) (protein, UniProt Q38906 1-313)
chain: MAALQTLREWIGIQQFPPATQSKLLEILGKYKEEDVSSLTVLVMGKGGVGKSSTVNSVIGEKAAAVSTFQSEGLRPTLVSRTRSGFTLNIIDTPGLIEGGYVNDQAINIIKRFLLNMTIDVLLYVDRLDVYRVDDLDRQVVGAITDAFGKEIWKKSALVLTHAQFSPPDGLNYNHFVSKRSNALLKVIQTGAQLKKQDLQGFSIPVILVENSGRCHKNESDEKILPCGTSWIPNLFNKITEISFNGNKAIHVDKKLVEGPNPNERGKKLIPLMFAFQYLLVMKPLVRAIKSDVSRESKPAWELRDSGLASRRS
- binding [2]: no binding
- binding [3]: no binding
- binding [4]: binds weakly
- binding [5]: no binding
- binding [6]: no binding
- binding [7]: no binding
- binding [8]: no binding
- binding [9]: no binding
- binding [10]: no binding

B3: AD·TOC34-C1 (TOC34 with N-terminal deletion down to the 260th residue, fused to the GAL4 activation domain) (domain or fragment, UniProt Q38906 261-313)
chain: NPNERGKKLIPLMFAFQYLLVMKPLVRAIKSDVSRESKPAWELRDSGLASRRS
- binding [11]: binds

B4: AD·TOC34-N (TOC34 lacking the last 54 amino acids, fused to the GAL4 activation domain) (domain or fragment, UniProt Q38906 1-259)
chain: MAALQTLREWIGIQQFPPATQSKLLEILGKYKEEDVSSLTVLVMGKGGVGKSSTVNSVIGEKAAAVSTFQSEGLRPTLVSRTRSGFTLNIIDTPGLIEGGYVNDQAINIIKRFLLNMTIDVLLYVDRLDVYRVDDLDRQVVGAITDAFGKEIWKKSALVLTHAQFSPPDGLNYNHFVSKRSNALLKVIQTGAQLKKQDLQGFSIPVILVENSGRCHKNESDEKILPCGTSWIPNLFNKITEISFNGNKAIHVDKKLVEG
- binding [11]: no binding

Binder: PLVRAIKSDVSRESKPAWELRDSGLASRRS (domain or fragment, UniProt Q38906 284-313)
- binding [11]: no binding
